# Assay results taken from article PMC4336329 (PLoS ONE, 2015).
# Hit rate of the full screen: of about 310,000 compounds, about 14,000 (4.5%) showed an effect of 50% or more. The effect is printed as a negative number. This is one part of the list.
# Target: human ether-à-go-go-related gene (hERG) potassium channel (human, UniProt Q12809)
# Test: primary screen, population patch clamp on CHO cells stably expressing hERG
# 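Also: peak tail current of the secondary pulse compared with the same well before compound.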
# human ether-à-go-go-related gene (hERG) potassium channel, sequence (Q12809 whole entry, looked up): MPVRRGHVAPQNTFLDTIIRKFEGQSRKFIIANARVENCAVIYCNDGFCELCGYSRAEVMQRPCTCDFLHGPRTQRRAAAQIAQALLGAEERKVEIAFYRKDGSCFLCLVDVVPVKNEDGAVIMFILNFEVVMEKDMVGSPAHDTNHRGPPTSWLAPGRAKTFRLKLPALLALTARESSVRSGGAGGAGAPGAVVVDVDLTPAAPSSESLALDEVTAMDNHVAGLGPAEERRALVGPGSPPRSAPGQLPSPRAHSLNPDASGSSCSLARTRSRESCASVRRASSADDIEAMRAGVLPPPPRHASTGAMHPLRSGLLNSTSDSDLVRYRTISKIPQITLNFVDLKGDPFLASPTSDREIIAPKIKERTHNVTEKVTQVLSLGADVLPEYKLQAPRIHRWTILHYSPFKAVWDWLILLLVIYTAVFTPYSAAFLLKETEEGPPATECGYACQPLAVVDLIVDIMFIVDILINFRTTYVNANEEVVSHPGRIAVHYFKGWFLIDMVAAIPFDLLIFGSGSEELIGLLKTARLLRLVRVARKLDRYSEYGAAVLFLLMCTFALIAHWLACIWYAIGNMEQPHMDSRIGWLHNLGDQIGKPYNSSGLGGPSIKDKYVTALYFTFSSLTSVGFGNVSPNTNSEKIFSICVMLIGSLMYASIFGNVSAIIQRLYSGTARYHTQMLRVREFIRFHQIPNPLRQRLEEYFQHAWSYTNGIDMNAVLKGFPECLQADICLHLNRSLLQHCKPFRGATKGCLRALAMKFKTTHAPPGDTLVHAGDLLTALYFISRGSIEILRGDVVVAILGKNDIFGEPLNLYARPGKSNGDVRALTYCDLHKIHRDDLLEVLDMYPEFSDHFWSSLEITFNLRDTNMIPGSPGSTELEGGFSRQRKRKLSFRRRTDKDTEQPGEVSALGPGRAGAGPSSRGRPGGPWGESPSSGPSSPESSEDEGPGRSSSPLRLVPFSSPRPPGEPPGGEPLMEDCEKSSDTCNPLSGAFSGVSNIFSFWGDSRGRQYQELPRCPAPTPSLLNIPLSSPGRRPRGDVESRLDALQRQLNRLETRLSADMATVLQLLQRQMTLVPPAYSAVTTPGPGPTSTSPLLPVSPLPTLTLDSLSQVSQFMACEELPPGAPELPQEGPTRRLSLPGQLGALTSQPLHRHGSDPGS
row,SMILES,"hERG current change (%, negative = inhibition) at 10uM"
1,Cc1oc(C(C)(C)C)c(CN2CCCC2)c1C(=O)O.Cl,13.4%
2,CC(=O)[C@@]1(O)CC[C@H]2[C@@H]3C[C@H](C)C4=CC(=O)C=C[C@]4(C)[C@@]3(F)[C@@H](O)C[C@@]21C,21.9%
3,COC(=O)c1cccc(NC(=O)Cc2ccc(OC)cc2)c1C,6.7%
4,CCCCOc1ccc2c(c1)C(=O)c1cc(O)ccc1-2,7.75%
5,CCn1c2ccccc2c2cc(/C=N/O)ccc21,40.6%
6,CCN1/C(=C/c2cc[n+](C)cc2)C=Cc2cc(C)ccc21.[I-],-72.2%
7,O=C(Nc1ccc2c(c1)OCO2)N1CCC(CO)(CC2CCCCO2)CC1 (stereo not drawn),24.6%
8,COc1ccc(NS(=O)(=O)c2cccc3cccnc23)cc1OC,24.2%
9,C/C(CC(=O)Nc1cccc2c1CCCC2)=N\NC(=O)COc1ccccc1,-14.9%
10,COc1ccccc1N1CCN(C(=O)C2Cc3ccccc3CN2C(=O)c2ccco2)CC1 (stereo not drawn),-21%
11,C=CCN1CCN(C(c2cc(OC)ccc2OC)c2nnnn2CC2CCCO2)CC1.Cl (stereo not drawn),9.57%
12,O=C1Nc2cc(Cl)c(Cl)cc2N(O)N1c1ccc(Cl)cc1,-2.53%
13,O=C(C1CCN(c2nnc(N3CCCC3=O)s2)CC1)N1CCN(c2cccc(C(F)(F)F)c2)CC1,-29.2%
14,Cc1ccc(S(=O)(=O)c2nc(Nc3ccccc3N3CCOCC3)sc2Cl)cc1,12.2%
15,COc1ccc(CNC(=O)c2ccc(N3CCC4(CC3)CC(c3ccc(Cl)cc3)=NO4)c([N+](=O)[O-])c2)cc1,9.12%
16,Cc1cccc(C)c1NC(=O)CN(C)C(=O)C1=COCCO1,13.6%
17,Cc1[nH]c2ccccc2c1/C=N/NC(=O)c1cc(C(C)C)[nH]n1,12.6%
18,Cc1noc(C)c1-c1nc(CSc2ccc(Cl)cc2)no1,-21.4%
19,CCOC(=O)CSc1cc(=O)n(CC)c2ccccc12,-25.2%

row,SMILES,"hERG current change (%, negative = inhibition) at 10uM"
1,O=c1cc2c(nn1Cc1cccc([N+](=O)[O-])c1)-c1ccccc1CC2,12.4%
2,CS(=O)(=O)OCCCCOS(C)(=O)=O,20.2%
3,c1ccc2c(c1)nc1n2CN(Cc2ccc3c(c2)OCO3)CN1,-0.244%
4,Cn1c(-c2cccs2)nc2ccccc21,-0.436%
5,Nc1nonc1-n1nnc(C(=O)N/N=C/c2cccc(Cl)c2Cl)c1CN1CCCC1,16.1%
6,COCC(=O)N1CCC(Oc2ccc(C(=O)N3CCSCC3)cc2)CC1,17.4%
7,CC(=O)OCC(=O)[C@H]1CC[C@H]2[C@@H]3CC=C4C[C@@H](O)CC[C@]4(C)[C@H]3CC[C@]12C,-2.42%
8,CC(C)(C)C(=O)CSc1nnc(Nc2ccccc2)s1,0.783%
9,CC(C(=O)NC1CCCCCC1)n1cc([N+](=O)[O-])cn1 (stereo not drawn),4.74%
10,CN(C)c1ccc(NC(=O)c2ccc(COc3cccc(Cl)c3)o2)cc1,0.95%
11,CC1CCN(C(=O)CCNC(=O)Cn2cnc3sc4c(c3c2=O)CCCC4)CC1,-9.86%
12,Cc1nnc(SCC(=O)Nc2cccc(S(=O)(=O)N(C)c3ccccc3)c2)s1,-32.2%
13,CCOC(=O)C1CCCN(C(=O)c2ccc(-c3ccc([N+](=O)[O-])cc3)o2)C1 (stereo not drawn),-56.1%
14,O=C(c1cc(Cl)ccc1Cl)N1CCN(c2ccccn2)CC1,-13.3%
15,CC(/C=N/NC(=O)c1cc(-c2ccc3ccccc3c2)n[nH]1)=C\c1ccco1,-4.47%
16,CCC(c1nnc(SCC(=O)Nc2cccc(S(N)(=O)=O)c2)n1-c1ccc(OC)cc1)N(C)C (stereo not drawn),13.3%
17,O=c1[nH]c2ccccc2c(=O)n1CCCO,2.66%
18,CC(=O)c1c(C)oc2ccc(N(C(=O)c3ccncc3)S(=O)(=O)c3ccccc3)cc12,-15%
19,CC(C)=N/N=C(\N)SCc1ccccc1,5.13%

row,SMILES,"hERG current change (%, negative = inhibition) at 10uM"
1,CC1=C(C(=O)OCCC#N)C(c2cc3c(cc2Br)OCO3)NC(=O)N1 (stereo not drawn),10.6%
2,Cc1onc(-c2ccccc2)c1C(=O)NNC(=S)NC(=O)/C=C/c1cccs1,5.43%
3,Cc1cc(C(F)(F)F)c(C#N)c(Sc2ccccc2)n1,9.44%
4,CCCCNC(=O)C1(O)c2cc(Br)ccc2NC(=O)N1c1cccc(OC)c1 (stereo not drawn),7.42%
5,COc1ccc(-c2ccc(SCc3cccnc3)nn2)cc1OC,29%
6,c1ccc(CN2CCOCCOCCOCCOCC2)cc1,-7.69%
7,O=C(CSc1ncccn1)N1CCN(Cc2ccccc2)CC1,9.31%
8,O=C(COc1ccccc1Br)N1CCNC1=O,-5.29%
9,CCSc1ccc(-c2nn(-c3ccccc3)cc2/C=C(/C#N)C(=O)NCCCOC)cc1,1.56%
10,O=C(CCNC(=O)c1ccc(Br)cc1)Nc1nccs1,7.1%
11,OCCCNc1ncnc2scc(-c3ccc(Cl)cc3)c12,-12.2%
12,Cc1nc2ccccc2c(=O)n1NC(=O)C1CCCCC1,5.49%
13,CNC(=O)c1nc[nH]c1C(=O)NC,12.7%
14,CCCN(CCC)CCCNC(=O)CS(=O)Cc1nc(-c2ccc(OC)c(OC)c2)oc1C (stereo not drawn),-0.855%
15,CCOC(=O)c1ccc(NC(=O)CCc2nc(-c3cccc(C)c3)no2)cc1,7.13%
16,COc1cc(/C=C2/C(=O)N(c3ccc([N+](=O)[O-])cc3)N=C2N2CCOCC2)ccc1O,-42.2%
17,CCC1CCCCN1CCCNC(=O)c1ccc2c(c1)NC(=O)CS2 (stereo not drawn),4.27%
18,CCOc1ccc(N2CC(C(=O)NCc3ccc(F)cc3)CC2=O)cc1 (stereo not drawn),-27.3%
19,C=CCOc1ccc(-c2n[nH]c(=S)o2)cc1,19.6%
